# Test results published in PubChem BioAssay AID504339 (National Center for Advancing Translational Sciences (NCATS), 2011).
# About 17,000 (4.4%) of roughly 390,000 compounds were called active. This list was built around the results that the source calls inconclusive (neither active nor inactive); the mix of calls is not that of the screen. Calls follow the shape of the dose curve; as a rule, active = well fitted inhibition curve with a large enough effect; inconclusive = small, poorly fitted or top-dose-only effect; inactive = no such curve, though single readings can be large or run the other way. A potency beside an inconclusive call is a rough fit, not a confirmed value.
# Molecular target: Lysine-specific demethylase 4A (Homo sapiens) (UniProt O75164)
# Assay: qHTS Assay for Inhibitors of JMJD2A-Tudor Domain; also: nearly all actives have a fitted effect of over 50% in size
# Conditions: AlphaScreen JMJD2A-Tudor / H3K4me3 peptide binding; activity change, negative = inhibition: at 114 µM (top of the series)
# % is scaled to controls: 0 for no effect and ±100 for the full control effect; potency is read from the fitted curve at half-maximal effect; tags tell the direction and shape of the fitted curve.
# UniProt O75164, sequence (O75164 whole entry, looked up, the tested form may be a part): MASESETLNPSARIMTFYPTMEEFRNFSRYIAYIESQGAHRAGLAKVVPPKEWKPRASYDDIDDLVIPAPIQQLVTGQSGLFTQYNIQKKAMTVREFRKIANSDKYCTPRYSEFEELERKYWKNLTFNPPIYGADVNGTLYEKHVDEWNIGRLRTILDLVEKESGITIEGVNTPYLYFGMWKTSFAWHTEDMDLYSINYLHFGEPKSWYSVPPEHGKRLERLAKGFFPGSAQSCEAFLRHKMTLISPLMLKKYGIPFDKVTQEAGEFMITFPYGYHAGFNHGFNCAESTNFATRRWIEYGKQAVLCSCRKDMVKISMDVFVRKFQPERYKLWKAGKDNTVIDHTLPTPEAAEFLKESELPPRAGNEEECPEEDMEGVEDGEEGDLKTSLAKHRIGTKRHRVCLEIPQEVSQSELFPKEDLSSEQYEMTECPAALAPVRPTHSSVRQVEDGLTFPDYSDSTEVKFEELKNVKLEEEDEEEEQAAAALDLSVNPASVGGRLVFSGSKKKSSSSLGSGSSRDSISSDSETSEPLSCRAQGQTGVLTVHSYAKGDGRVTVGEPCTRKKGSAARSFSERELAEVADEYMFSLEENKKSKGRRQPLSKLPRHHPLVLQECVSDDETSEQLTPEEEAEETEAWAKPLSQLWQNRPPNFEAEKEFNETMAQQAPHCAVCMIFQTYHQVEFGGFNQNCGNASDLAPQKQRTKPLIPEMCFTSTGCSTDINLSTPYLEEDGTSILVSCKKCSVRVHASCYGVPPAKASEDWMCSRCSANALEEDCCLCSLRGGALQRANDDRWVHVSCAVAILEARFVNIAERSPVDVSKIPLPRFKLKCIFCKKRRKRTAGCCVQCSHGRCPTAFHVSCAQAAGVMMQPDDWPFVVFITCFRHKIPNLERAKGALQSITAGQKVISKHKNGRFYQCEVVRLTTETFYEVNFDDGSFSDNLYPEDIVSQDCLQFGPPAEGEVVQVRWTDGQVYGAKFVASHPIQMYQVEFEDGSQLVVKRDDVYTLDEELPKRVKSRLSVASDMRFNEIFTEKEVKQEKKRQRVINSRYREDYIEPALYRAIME
SMILES,Potency,"activity change, negative = inhibition"
COc1ccc(C(=O)c2ccc(N3CCOCC3)c([N+](=O)[O-])c2)cc1,"inconclusive: 63.1 µM [inhibitor, partial curve, poor fit]",
Cc1cccc(NCc2nc3ccccc3n2Cc2ccccc2)c1,"inconclusive: 35.5 µM [inhibitor, full curve]",
CCCC(c1nnnn1Cc1ccc(OC)cc1)N1CCN(c2ccccc2OC)CC1 (stereo unspecified),"inconclusive: 39.8 µM [inhibitor, partial curve]",
COc1cc(C(=O)OCCN2CCOCC2)cc(OC)c1OC,"inconclusive: 70.8 µM [inhibitor, single point]",
CCOC(=O)N1CCC(NC(=O)c2ccc3c(c2)N(Cc2ccccc2)CCS3)CC1,"inconclusive: 35.5 µM [inhibitor, full curve, poor fit]",
Cn1c(=O)n(C)c2cc(N3CCOCC3)c(NC(=O)c3cccc(Cl)c3)cc21,"inconclusive: 44.7 µM [inhibitor, partial curve]",
CCOC(=O)c1ccc(NC(=O)c2ccc3c(c2)c(C)c(C)n3Cc2ccc(F)cc2)cc1,inactive,
COC(=O)c1ccc(-c2ccco2)n1Cc1cc(C)ccc1C,inactive,
CC(C)NC(=O)c1ccc2c(=O)n(CC3CCCO3)c(=S)[nH]c2c1 (stereo unspecified),"inconclusive: 39.8 µM [inhibitor, full curve]",
Cn1cc(CCNC(=O)CC2C(=O)NCCN2Cc2cccc(Oc3ccccc3)c2)cn1 (stereo unspecified),"inconclusive: 44.7 µM [inhibitor, full curve, poor fit]",
O=C(O)C1CC=CCC1C(=O)Nc1ccc(S(=O)(=O)N2CCCc3ccccc32)cc1 (stereo unspecified),inactive,
Cc1ccc(-c2cc(-c3ccco3)c3c(N)c(C(=O)NN)oc3n2)cc1,"inconclusive: 50.1 µM [inhibitor, partial curve]",
Clc1ccc(C2=NNC(=NCc3ccc4c(c3)OCO4)SC2)cc1,"inconclusive: 56.2 µM [inhibitor, partial curve, poor fit]",
Cc1ccc(N=Nc2ccc(O)c(P(=O)(c3ccccc3)c3ccccc3)c2)cc1,active: 11.2 µM,
Cc1ccc(NS(=O)(=O)c2cc3c(cc2N(C)C)CCC(=O)N3)cc1C,inactive,
COc1ccc(-c2nnc(SCCC(=O)O)n2-c2ccccc2)cc1,active: 39.8 µM,
Cc1ccc(S(=O)(=O)O)c(C)c1N1CCCC1=O,"inconclusive: 89.1 µM [inhibitor, partial curve]",
COC(=O)c1ccc(NCc2cc(O)ccc2O)cc1O,active: 8.91 µM,
COc1ccc2c(c1)CC(=O)NC=C2,"inconclusive: 89.1 µM [inhibitor, single point]",
CC(CC(=O)Nc1nccs1)c1ccccc1 (stereo unspecified),inactive,
CCN(CC)C(=O)[C@H]1CC(CC(=O)NCCCN(C)C)C(=O)N2CCc3c([nH]c4ccc(OC)cc34)[C@]12C (stereo partly specified),"inconclusive: 79.4 µM [inhibitor, partial curve]",
Cc1ccc(S(=O)(=O)n2nc(-n3c(C)ccc3C)c3c(F)cccc32)c2ccccc12,"inconclusive: 8.91 µM [inhibitor, partial curve]",
NC(=O)CN1CCOCCOCCOCCOCCOCC1,"inconclusive: 39.8 µM [inhibitor, single point]",
COc1ccc(/C=C2\SC(=S)N(CCCC(=O)Nc3ccccc3C(=O)O)C2=O)cc1OC,"inconclusive: 39.8 µM [inhibitor, partial curve]",

SMILES,Potency,"activity change, negative = inhibition"
Cc1ccc(C(=O)/C=C/c2ccc(Br)cc2)o1,inactive,
Cc1cc2c3c(c1)C(C)(c1ccccc1)CC(C)(C)N3C(=O)C21C(C#N)=C(N)OC2=C1C(=O)CC(C)(C)C2 (stereo unspecified),"inconclusive: 44.7 µM [inhibitor, partial curve]",
Oc1ccc(N=Nc2ccccc2-c2nn[nH]n2)c(O)c1,"inconclusive: 63.1 µM [inhibitor, partial curve, poor fit]",
O=C(Nc1ncc(C(F)(F)F)cc1Cl)c1ccc(S(=O)(=O)N2CCOCC2)cc1,inactive,
Cc1nn(-c2ccccc2)c2sc(C(=O)OCc3nnc(-c4ccccc4)o3)cc12,"inconclusive: 79.4 µM [inhibitor, partial curve]",
Cc1ccccc1-n1c(=S)[nH]c2nc3c(cc2c1=O)CCCC3,inactive,
CCn1cc(S(=O)(=O)CC(=O)Nc2ccc3c(c2)OCCO3)c2ccccc21,"inconclusive: 56.2 µM [inhibitor, partial curve]",
Cc1cc(C)nc(NC(=S)NC(=O)c2ccccc2F)n1,"inconclusive: 31.6 µM [inhibitor, partial curve]",
COc1ccc(C2C(C(=O)c3ccco3)=C(O)C(=O)N2CCN2CCOCC2)cc1 (stereo unspecified),"inconclusive: 31.6 µM [inhibitor, partial curve]",
Cc1ccc(CCNCc2c(C(=O)O)c(C)n(-c3ccccc3)c2C)cc1,"inconclusive: 39.8 µM [inhibitor, full curve, poor fit]",
COc1ccc(OC)c2sc(N(CCN(C)C)C(=O)/C=C/c3cccs3)nc12,"inconclusive: 28.2 µM [inhibitor, partial curve]",
O=c1ccc(-c2ccc(S(=O)(=O)NCC3CCN(Cc4ccccc4F)CC3)s2)n[nH]1,"inconclusive: 79.4 µM [inhibitor, partial curve]",
Cc1[nH]c2ccccc2c1/C=N\NC(=O)CNc1ccc2c(c1)OCO2,"inconclusive: 39.8 µM [inhibitor, partial curve]",
Cc1ccc(S(=O)(=O)N2CCOCC2)cc1-c1n[nH]c(=S)n1-c1ccccc1,active: 6.31 µM,
Cc1ccc(NC(=O)c2cccc(N3CCCS3(=O)=O)c2)cc1,inactive,
Cc1c(N=Nc2c(-c3ccc([N+](=O)[O-])cc3)[nH]n(C(N)=S)c2=O)cccc1[N+](=O)[O-],"inconclusive: 35.5 µM [inhibitor, partial curve]",
Cc1cccc2sc(NC(=O)c3cc(S(=O)(=O)N(C)C)ccc3N3CCCC3)nc12,"inconclusive: 12.6 µM [inhibitor, partial curve]",
O=S(=O)(NCCN1CCOCC1)c1ccc(F)c(Cl)c1,active: 14.1 µM,
CCOC(=O)C1CCN(c2nc(N)c3c(N)nc(SCC(=O)O)cc3c2C#N)CC1,,inactive: -14.7% [at 11.4 µM]
CC(=O)Nc1csc2ccccc12,inactive,
COc1ccccc1N1CCN(c2ccc(=O)n(CC(=O)Nc3ccc(F)c(F)c3)n2)CC1,"inconclusive: 89.1 µM [inhibitor, partial curve, poor fit]",
Cc1ccc(N(CC(=O)NC2CC2)S(=O)(=O)c2ccccc2)c(C)c1,inactive,
CCc1cccc(NC(=O)CCc2c(C)nc3c(c2C)c(=O)n(C)c(=O)n3C)c1,inactive,
O=C(Nc1nnc(-c2ccccc2)s1)c1cccc(S(=O)(=O)N2CCOCC2)c1,active: 79.4 µM,

SMILES,Potency,"activity change, negative = inhibition"
CCn1ncc2c(OCc3ccc(C#N)cc3)cc(C)nc21,inactive,
CC(=O)/C(=N/Nc1ccccc1Cl)Sc1nnc(C(O)c2ccccc2)n1-c1ccccc1 (stereo unspecified),"inconclusive: 39.8 µM [inhibitor, single point]",
COc1ccc(C2=NOC(C(=O)NCc3ccccc3)C2)cc1 (stereo unspecified),"inconclusive: 15.8 µM [inhibitor, full curve, poor fit]",
S=c1[nH]ccn1-c1ccccc1Cl,active: 22.4 µM,
Cc1ccc(C(C)C)c(OCCN(C)C)c1,active: 2.82 µM,
COc1ccc(N2CCN(CCCNC(=O)C3(S(=O)(=O)c4ccc(Cl)cc4)CC3)CC2)cc1,active: 50.1 µM,
C=CCn1c(SCC(=O)c2ccc(O)c(O)c2)nnc1-c1cccc(OC)c1,"inconclusive: 28.2 µM [inhibitor, full curve]",
O=C(CCc1nnc(-c2ccc3c(c2)OCO3)o1)NCCc1ccccc1F,"inconclusive: 14.1 µM [inhibitor, full curve, poor fit]",
Cc1cc(NC(=O)CCOc2ccc(F)cc2)no1,inactive,
COc1ccccc1CN1CC(C(=O)N2CCOCC2)CCC1=O (stereo unspecified),"inconclusive: 3.16 µM [inhibitor, partial curve, poor fit]",
CC(C)OCCCn1c(=O)c2ccccc2n2c(CCC(=O)O)nnc12,inactive,
CC1CCCN(C(=O)C(C)Nc2cc(Cl)ccc2N2CCOCC2)C1 (stereo unspecified),"inconclusive: 50.1 µM [inhibitor, partial curve]",
Cc1cc(N2CCOCC2)nc2ccccc12,inactive,
O=C1c2ccccc2C(=O)c2c1ccc1c(=O)n(C3CCCCC3)[nH]c21,active: 25.1 µM,
COc1ccc(NC(=O)/C(C#N)=C\C=C\c2ccco2)cc1,"inconclusive: 50.1 µM [inhibitor, single point]",
C[C@@](Cc1ccccc1)(C(=O)O)N1C(=O)c2ccc(C(=O)O)cc2C1=O,"inconclusive: 89.1 µM [inhibitor, single point]",
O=C(CCN1C(=O)/C(=C/c2cccc(Br)c2)SC1=S)NNC(=O)c1cccnc1,inactive,
CC(=O)Nc1ccc2c(O)cc(S(=O)(=O)O)cc2c1,"inconclusive: 17.8 µM [inhibitor, full curve, poor fit]",
COc1ccc(NC(=O)C2=C(C)Nc3nc(CCCO)nn3C2c2ccc(O)cc2)cc1 (stereo unspecified),inactive,
CC(C)(C)NC(=O)NC(=O)CN1CCCc2ccccc21,inactive,
Cc1ccc(NC(=S)N/N=C2\CC3CC=CC23)c(C)c1 (stereo unspecified),"inconclusive: 25.1 µM [inhibitor, single point]",
COc1ccc(N2CC(C(=O)Nc3ccc(NC(C)=O)cc3)CC2=O)cc1 (stereo unspecified),inactive,
CCC1=Nc2cc(C(=O)NCc3ccco3)ccc2Sc2ccccc21,"inconclusive: 50.1 µM [inhibitor, partial curve]",
